From PMC4336329 (PLoS ONE, 2015)
Screen size: about 310,000 compounds; about 14,000 (4.5%) showed an effect of 50% or more. The effect is printed as a negative number. The list shows a part of the results.

target: human ether-à-go-go-related gene (hERG) potassium channel (human, UniProt Q12809); experiment: primary screen, population patch clamp on CHO cells stably expressing hERG
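Further: peak tail current of the secondary pulse compared with the same well before compound.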

human ether-à-go-go-related gene (hERG) potassium channel, sequence (Q12809 whole entry, looked up): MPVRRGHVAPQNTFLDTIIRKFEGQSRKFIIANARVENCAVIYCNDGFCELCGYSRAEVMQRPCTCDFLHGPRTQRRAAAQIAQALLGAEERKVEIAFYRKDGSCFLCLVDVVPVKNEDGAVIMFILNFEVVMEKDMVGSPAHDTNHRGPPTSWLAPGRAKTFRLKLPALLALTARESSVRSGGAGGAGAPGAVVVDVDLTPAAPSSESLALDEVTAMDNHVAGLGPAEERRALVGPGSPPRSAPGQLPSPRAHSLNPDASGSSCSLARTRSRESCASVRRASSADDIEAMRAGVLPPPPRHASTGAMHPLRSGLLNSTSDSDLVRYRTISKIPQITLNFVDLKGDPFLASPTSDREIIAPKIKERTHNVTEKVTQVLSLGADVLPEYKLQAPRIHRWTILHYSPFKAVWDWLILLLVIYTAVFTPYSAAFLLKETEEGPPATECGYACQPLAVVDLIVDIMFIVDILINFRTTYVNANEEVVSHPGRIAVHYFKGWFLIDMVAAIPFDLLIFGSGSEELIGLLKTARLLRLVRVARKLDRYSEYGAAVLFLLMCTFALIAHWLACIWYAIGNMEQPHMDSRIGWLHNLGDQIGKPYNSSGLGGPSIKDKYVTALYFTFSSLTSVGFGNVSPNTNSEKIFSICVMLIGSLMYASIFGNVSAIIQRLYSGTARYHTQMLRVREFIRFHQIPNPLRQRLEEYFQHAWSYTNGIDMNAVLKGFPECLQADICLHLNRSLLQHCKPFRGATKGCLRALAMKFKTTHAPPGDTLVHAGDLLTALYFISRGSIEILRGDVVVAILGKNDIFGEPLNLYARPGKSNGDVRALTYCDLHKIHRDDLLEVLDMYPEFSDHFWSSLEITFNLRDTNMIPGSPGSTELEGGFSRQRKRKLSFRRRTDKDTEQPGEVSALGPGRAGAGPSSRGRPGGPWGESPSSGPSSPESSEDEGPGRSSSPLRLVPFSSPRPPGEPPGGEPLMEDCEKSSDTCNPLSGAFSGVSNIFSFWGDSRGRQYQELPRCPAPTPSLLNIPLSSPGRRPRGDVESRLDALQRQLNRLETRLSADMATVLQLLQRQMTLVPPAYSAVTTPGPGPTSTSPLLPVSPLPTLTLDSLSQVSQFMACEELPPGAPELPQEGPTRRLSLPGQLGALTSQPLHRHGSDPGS

Row | Structure (SMILES) | hERG current change (%, negative = inhibition) at 10uM [%]
1 | O=C(CSc1nnc(-c2ccccc2O)o1)Oc1ccc(OCc2ccccc2)cc1 | 20.1
2 | Cc1cc(C)c(C(=O)N2CCCC(N3CCN(c4cccc(C(F)(F)F)c4)CC3)C2)o1 (stereo not shown) | -52.1
3 | COc1ccc(-n2nc3c(N4CCC(C(=O)NCc5ccccc5)CC4)nnc(C)c3c2C)cc1 | 16.3
4 | O=C(Nc1ccccc1N1CCCCC1)C1CCN(C(=O)c2ccc(Cl)cc2)CC1 | -69.9
5 | COCC(=O)N(Cc1cc2ccc(C)cc2[nH]c1=O)c1ccccc1C | 12.8
6 | CC(NC(=O)c1cccc(OC2CCN(C3CCN(C)CC3)CC2)c1)c1ccccc1 (stereo not shown) | 7.63
7 | COc1ccc(OC)c(CCNC(=O)c2ccc(CS(=O)(=O)c3ccc(Br)cc3)o2)c1 | 1.02
8 | CCc1cc2c(=O)n(-c3ccccc3)c(=S)[nH]c2s1 | 18.4
9 | O=C(Nc1ccccc1)C1=C[C@H](C2CC2)C[C@H](OCCCCO)O1 | 7.36
10 | COc1ccc(C2C(C#N)=C(N)OC3=C2C(=O)CCC3)cc1OC (stereo not shown) | 4.07
11 | CCOC(=O)CSc1ncnc2c1cnn2-c1ccc(C)cc1 | 6.44
12 | CCCCn1nc2cc(C(=O)NC[C@@H]3CCCO3)ccc2c1OCC | 8.44
13 | COc1ccc(COCC(O)CN2CCOCC2)cc1OC.Cl (stereo not shown) | 20.8
14 | O=C1NC(c2ccncc2)C(C(=O)c2cccs2)C(O)(C(F)(F)F)N1 (stereo not shown) | 2.61
15 | O=C(CSc1ccc(-c2ccccc2)nn1)N1CCCc2ccccc21 | -23.8
16 | CC(C)c1ccc(OC(=O)NCCO)cc1 | -15
17 | CC[C@]12CCCN3CCc4c(n(c5ccccc45)C(=O)C1)C32 (stereo partly shown) | -65.7
18 | CC(C)C(CCNC(=O)CN1C(=O)c2ccccc2C1=O)c1ccco1 (stereo not shown) | -13
19 | COc1ccc(S(=O)(=O)NCC2CCCN(C(=O)CC3CCCC3)C2)cc1 (stereo not shown) | -25
20 | CC(C)[C@H](NC(=O)c1ccccc1)C(=O)O | 24.6
21 | CCn1ncc(C2=NOC(C(=O)NCc3ccc(OC)cc3)C2)c1C (stereo not shown) | -2.53
22 | Cc1nn(C)c(=O)c(N)c1-c1cc(-c2ccc(Cl)c(Cl)c2)n[nH]1 | 11.2
23 | Cc1ccc(-c2cccc(C3CC=CC4C3C(=O)N(Cc3ccccc3)C4c3cc(C)ccc3F)c2)cc1 (stereo not shown) | 10.8
24 | CCOC(=O)/C(=C/c1cn(C)c2ccccc12)NC(=O)c1ccccc1 | -1.73
25 | Cc1cccc(S(=O)(=O)NC2CCCCCCC2)c1 | -6.75
26 | COc1cc(C2NC(=O)N(C)C3=C2C(=O)CCC3)cc(OC)c1OC (stereo not shown) | 7.87
27 | CCN(CC)CCCN1CC(=O)N2[C@@H](Cc3c([nH]c4ccccc34)C2(C)C)C1=O | 1.24
28 | CCC(=O)Nc1cccc(C2=NOC3(C2)C[C@H](C(N)=O)N(C(=O)Cc2ccc([N+](=O)[O-])cc2)C3)c1 (stereo partly shown) | 0.688

Row | Structure (SMILES) | hERG current change (%, negative = inhibition) at 10uM [%]
29 | CCOc1cc(/C=N/NC(N)=O)ccc1OCC(=O)Nc1ccc(C)c(C)c1 | -16.7
30 | Cc1ccc(/C=N\NC(=O)c2csnn2)cc1 | 3.58
31 | O=C(COC(=O)c1cc(S(=O)(=O)N2CCCCC2)ccc1N1CCOCC1)NC1CCCCC1 | -1.4
32 | CCCn1c(NC(=O)c2cccc(C)c2C)nc2ccccc21 | -26.7
33 | CC(=O)N1CCC2(CC1)C/C(=N\NC(=S)Nc1ccccc1F)c1cc(O)ccc1O2 | -69
34 | COc1cccc(CNC(=O)Cn2ccc3cc(S(=O)(=O)N4CCCCCC4)ccc32)c1OC | -22.5
35 | CN(C)C(=O)CN1C(=O)c2cccc3cccc1c23 | 22.4
36 | CN1CCN(Cc2nc3ccccc3c(=O)[nH]2)CC1 | 6.57
37 | Cc1ccc(S(=O)(=O)N(C)CC(=O)O/N=C(\N)c2cccnc2)cc1 | -0.801
38 | COc1ccc(NC(=O)N2CCCC2C(=O)NCCc2ccccc2)cc1 (stereo not shown) | -19.9
39 | c1ccc(OCc2cc(-c3ccccc3)no2)cc1 | 21.3
40 | O=C(CCC(=O)Nc1ccc(Cl)cc1Cl)NNC(=O)[C@@H]1CCCC[C@@H]1C(=O)O | 20.2
41 | CC(=O)NC1=C(C#N)C(c2ccccc2)c2c(ccc3ccccc23)O1 (stereo not shown) | -2.57
42 | CC(C)NS(=O)(=O)c1ccc(CCC(=O)N2CCc3ccccc3C2)cc1 | -11.9
43 | COc1ccc([N+](=O)[O-])cc1C(=O)Nc1ccc(OCC(=O)N2CCOCC2)cc1 | -11.8
44 | Oc1cccc(N2Cc3ccccc3C2)c1 | 14.6
45 | COCCNC(=O)c1ccc2c(=O)n(CCCN3CCCC3=O)c(=S)[nH]c2c1 | 6.36
46 | COc1ccc(/C=C2\Oc3cc(OC(=O)N4CCOCC4)ccc3C2=O)c(OC)c1 | 12.9
47 | O=c1[nH]c(=S)n(-c2ccc(Br)cc2)c(O)c1C=Nc1ccc(N2CCOCC2)cc1 | -13.5
48 | CCCc1c(C(=O)NNc2ccc(C)cc2)cnn1-c1ccccc1 | 1.29
49 | O=C(CSc1nc(N2CCOCC2)nc(N2CCOCC2)n1)Nc1ccc(Cl)cc1Cl | -21.8
50 | COc1cc(C(c2c(C)[nH][nH]c2=O)c2c(C)[nH][nH]c2=O)ccc1OC(C)C | 40.4
51 | O=C(NCc1n[nH]c(=S)n1-c1ccc(Cl)c(Cl)c1)c1ccc(S(=O)(=O)N2CCOCC2)cc1 | 14.5
52 | Cc1cccc(C(=O)NCC(=O)N2CCN(S(=O)(=O)c3ccccc3)CC2)c1 | -10.8
53 | Cc1ccc(C)c(N(CC(=O)NCc2ccco2)C(=O)CNS(=O)(=O)c2ccc(F)cc2)c1 | -8.08
54 | CCSc1nnc(NC(=O)c2ccccc2)s1 | -15.4
55 | Cn1c(=O)c2c(nc(CN3CCN(c4ccccc4)CC3)n2CCN2CCOCC2)n(C)c1=O | -21.7
